Measured values: PubChem BioAssay AID1508623 (National Center for Advancing Translational Sciences (NCATS), 2021)
Screen size: about 48,000 compounds; about 450 (0.94%) were called active. Inconclusive results (about 19%) are left out. Calls follow the shape of the dose curve; as a rule, active = well fitted inhibition curve with a large enough effect; inconclusive = small, poorly fitted or top-dose-only effect; inactive = no such curve, though single readings can be large or run the other way. Some of the results follow.

Experiment: Primary qHTS for Identification of Small Molecule Inhibitors of Huntingtin Promoter Activity; also: nearly all actives have a fitted effect of over 50% in size
Details: HEK293 HTT promoter firefly luciferase reporter (activity 0% = vehicle and -100% = no light), 24 h; series mostly up to 57.5 µM; activity change, negative = inhibition: at the top concentration
Procedure, shortened: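 Firefly luciferase signal from promoter-reporter HEK293 cells was scaled between vehicle (0%) and zero RLU (-100%). Compounds were tested at final concentrations of up to 57.5 uM over 24 h at 37 degrees C. PTC124 at 50 uM final served as control inhibitor.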

Compound | activity change, negative = inhibition
COc1ccc(NC(=O)CSc2nnc(N)s2)cc1 | inactive: 11.8%
Cn1c(=O)oc2cc(S(=O)(=O)NC(CC(=O)O)c3cccc(Br)c3)ccc21 (stereo unspecified) | inactive: -1.03%
Cc1cccc(NC(=O)NCCn2c(=O)oc3ccc(C)cc32)c1 | inactive: -9.79%
COc1cccc(NC(=O)c2sc3nc(N4CCOCC4)c4c(c3c2N)CC(C)(C)OC4)c1 | inactive: 38.7%
Cc1oc2c(c1C(=O)NCc1cccc(Br)c1)C1=NCCN1C=N2 | inactive: 6.55%
Cc1ccc(CNC(=O)CCCn2c(=O)c3ccccc3n(CC(=O)C(C)(C)C)c2=O)cc1 | inactive: -5.31%
CCOC(=O)Cn1c(=O)n(CC2CCCO2)c2nc(-c3ccc(OC)cc3OC)nc(C(N)=O)c21 (stereo unspecified) | inactive: -12.9%
COc1cc(NC(=O)C(CC(C)C)NS(=O)(=O)c2ccc3c(c2)CCCC(=O)N3)cc(OC)c1 (stereo unspecified) | inactive: -10.9%
COc1ccc(CNC(=O)CN(c2ccc(C)cc2)S(=O)(=O)c2c(C)n[nH]c2C)cc1 | inactive: -5.12%
COc1ccc2oc(=O)c(-c3csc(/C(C#N)=C/c4ccc(F)cc4)n3)cc2c1 | inactive: -3.01%
COc1ccccc1N1CCN(C(=O)C2CCN(S(=O)(=O)c3cnc[nH]3)CC2)CC1 | inactive: 3.12%
CCOc1ccc(NC(=O)Cn2c(=O)n(-c3ccc(C)cc3)c(=O)c3cc(OC)c(OC)cc32)cc1 | inactive: 2.7%
Cc1ccc(C)c(N2CCN(C(=O)c3cnc4c(-c5ccccc5)c(C)nn4c3C)CC2)c1 | inactive: -15.6%
Cc1ccc(/C=C(\C#N)C(=O)Nc2cc(C)ccc2C)cc1 | inactive: -0.476%
CCOC(=O)c1c(NC(C)=O)c2c3c(sc2n1Cc1nc(-c2ccccc2OCC)oc1C)CCCC3 | inactive: 3.95%
CC(C)(C)OC(=O)N[C@H]1CCCCCC=C[C@@H]2C[C@@]2(C(=O)NS(=O)(=O)C2CC2)NC(=O)[C@@H]2C[C@@H](OC(=O)N3Cc4cccc(F)c4C3)CN2C1=O | inactive: -13.4%
COc1cc(C)c(Cl)cc1S(=O)(=O)NCCc1c(C)[nH]c2ccccc12 | inactive: -2.9%
Cc1ccc(C)c(CN2C(=O)c3ccccc3S(=O)c3ccc(C(=O)NCc4ccccc4Cl)cc32)c1 (stereo unspecified) | inactive: -12.6%
CCN(CC)c1ccc(C(=O)NCc2ccc3c(c2)CCN3C(=O)c2ccccc2)cc1 | inactive: -11.7%
Brc1ccccc1-n1ncc2c1ncn1nc(Cc3ccccc3)nc21 | inactive: 37%
Cc1ccc2c(c1)N(C(=O)CCC(=O)Nc1ccccc1Cl)CC(C)O2 (stereo unspecified) | inactive: -19.8%
O=c1cc(CSc2ncn[nH]2)[nH]c2c(Cl)cccc12 | inactive: 0.441%
COc1ccc(OC)c(Nc2nc(-c3ccc(C)cc3)nc3ccccc23)c1 | inactive: 7.38%

Compound | activity change, negative = inhibition
O=C(CSc1nnc(NC(=O)NC2CCCCC2)s1)Nc1ccccc1F | inactive: 15.7%
CCOC(=O)c1c(C)[nH]c(C)c1S(=O)(=O)NCC(=O)Nc1cccc(C(F)(F)F)c1 | inactive: -24.7%
CC1CCCN(C(=O)Cn2c(=O)oc3cc(S(=O)(=O)N4CCCCC4)ccc32)C1 (stereo unspecified) | inactive: -12.1%
Cc1ccc(-c2nnc(Nc3ccc(Br)cc3)c3ccccc23)cc1S(=O)(=O)N1CCOCC1 | inactive: -12.2%
COc1ccc(-n2c(=O)c3sc4ccccc4c3n(CC(=O)Nc3cccc(C)c3)c2=O)cc1 | inactive: 5.02%
Cc1ccc(NC(=O)C(Cc2ccccc2)NS(=O)(=O)c2ccc3c(c2)oc(=O)n3C)c(Cl)c1 (stereo unspecified) | inactive: -21%
CC1=C(C(=O)Nc2ccccc2C)C(c2cccnc2)n2nc(SCc3ccccc3)nc2N1 (stereo unspecified) | inactive: -8.86%
CCOC(=O)N1CCc2c(sc3c2c(=O)n(CCc2ccccc2)c(=O)n3Cc2cc(C)ccc2C)C1 | inactive: -7.91%
COCCNC(=O)Cn1cc(S(=O)(=O)Cc2ccccc2Cl)c2ccccc21 | inactive: 2.07%
CCOc1ccccc1NC(=O)c1cn(C2CCCC2)c(=O)c2c1c1ccccc1n2C | inactive: -4.79%
COc1ccccc1NC(=O)C1=C(C)Nc2nc(SCc3ccccc3)nn2C1c1ccccn1 (stereo unspecified) | inactive: -11%
CCN(CC)S(=O)(=O)c1ccc2c(c1)N(CC(=O)NCCc1ccc(OC)c(OC)c1)C(=O)CO2 | inactive: -15.3%
Cc1nc2c(c(C)c1CCC(=O)Nc1cccc(C(F)(F)F)c1)c(=O)n(C)c(=O)n2C | inactive: -9.47%
Cc1nnc(NC(=O)CSc2nccn2-c2cccc(Cl)c2)s1 | inactive: -26.1%
COc1ccc(C(=O)Nc2ccccc2C(=O)OCc2cc(=O)n3c4c(sc3n2)CCCC4)cc1 | inactive: -13.2%
O=C(CCC(=O)N1CC2CCCN2c2ccccc21)NCc1ccccc1Cl (stereo unspecified) | inactive: -26.4%
COc1ccccc1CNc1nc2nc(C)c(Cl)c(C)n2n1 | inactive: -16.9%
COC(=O)c1c(NC(=O)c2cccc(OC)c2)sc2c1CCC(C(C)(C)C)C2 (stereo unspecified) | inactive: -24.5%
Cc1cccc(-c2nc(SCC(=O)Nc3cc(C)on3)c3c(=O)n(C)c(=O)n(C)c3n2)c1 | inactive: -10.1%
COCCCNC(=O)c1ccc2c(c1)N=C(C)c1c(C)ccc(C)c1S2 | inactive: -46.2%
COc1ccc(N2CCN(c3ccc(-c4nc(-c5ccccc5C)no4)cc3[N+](=O)[O-])CC2)cc1 | inactive: 2.9%
Cc1ccc(NC(=O)N2CCC(N3CCN(Cc4ccccc4)C(=O)C3=O)CC2)cc1Cl | inactive: 0%
Cc1cccc(CNC(=O)C2CCCN(S(=O)(=O)c3cn(C)cn3)C2)c1 (stereo unspecified) | inactive: -12.3%
